Experimental data from patent US20260193317A1, “COMBINATION THERAPY WITH ACTRIIB RECEPTOR VARIANTS AND GLP-1 AGONISTS” (35PHARMA Inc., priority 2023, published 2026).

T1: BMP-10 (UniProt O95393 317-424)
T1 sequence (looked up): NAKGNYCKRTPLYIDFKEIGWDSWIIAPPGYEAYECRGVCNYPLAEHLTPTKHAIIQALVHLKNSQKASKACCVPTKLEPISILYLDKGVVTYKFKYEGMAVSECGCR

T2: BMP-9 (UniProt Q9UK05 320-429)
T2 sequence (looked up): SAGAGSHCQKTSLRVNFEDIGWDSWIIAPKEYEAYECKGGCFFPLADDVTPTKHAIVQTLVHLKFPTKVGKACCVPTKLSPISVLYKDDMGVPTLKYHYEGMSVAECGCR

T3: recombinant human activin A (human, UniProt P08476 311-426)
T3 sequence (looked up): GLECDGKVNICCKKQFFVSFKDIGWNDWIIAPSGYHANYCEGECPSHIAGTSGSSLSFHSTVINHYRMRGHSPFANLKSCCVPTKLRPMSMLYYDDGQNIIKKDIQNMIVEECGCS

T4: activin B (UniProt P09529 293-407)
T4 sequence (looked up): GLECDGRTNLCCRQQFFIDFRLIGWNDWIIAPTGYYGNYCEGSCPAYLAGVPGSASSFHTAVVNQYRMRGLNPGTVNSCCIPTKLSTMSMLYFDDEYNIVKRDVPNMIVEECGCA

T5: BMP-10 (Homo sapiens, UniProt O95393)
T5 sequence (O95393 317-424): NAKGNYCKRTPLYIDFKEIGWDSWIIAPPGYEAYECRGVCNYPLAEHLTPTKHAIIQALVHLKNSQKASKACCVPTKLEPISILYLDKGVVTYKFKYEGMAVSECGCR


What was measured:
BMP-10 [1] = target: T1, BMP-10; experiment: cell-based or functional assay
BMP-9 [2] = target: T2, BMP-9; experiment: cell-based or functional assay
BMP-9 [3] = target: T2, BMP-9; experiment: cell-based or functional assay; remark: listed apart in the source
GDF-11 = GDF-11 (UniProt O95390 299-407); experiment: cell-based or functional assay
Chain of GDF-11 (O95390 299-407 limits assumed): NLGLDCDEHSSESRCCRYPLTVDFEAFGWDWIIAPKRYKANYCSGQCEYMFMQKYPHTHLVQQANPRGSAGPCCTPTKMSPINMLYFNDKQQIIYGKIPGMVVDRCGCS

[4] = target: T3, recombinant human activin A; experiment: cell-based or functional assay
activin B = target: T4, activin B; experiment: cell-based or functional assay
GDF-8 = GDF-8 (UniProt O14793 267-375); experiment: cell-based or functional assay
BMP-10 [5] = target: T5, BMP-10; experiment: BMP-reporter HepG2 cell-based assay: BMP-10 neutralization
[6] = Body weight gain with twice weekly injections in wild-type male mice; assay type: in vivo; details: P750 at 1 mg/kg s.c. twice weekly, 11 days
Experimental: Additional in vivo evaluation of exemplary agents, P750 and P1229, was conducted and compared to P75. P750 (1, 10, and 25 mg/kg), P1229 (5 and 25 mg/kg), and P75 (25 mg/kg) were injected subcutaneously twice weekly in wild-type male mice (n=6/group), over the course of 11 days (P750; FIG. 7A) or 7 days (P1229 and P75; FIG. 7B). P750 (10 and 25 mg/kg), P1229 (5 and 25 mg/kg), and P75 (25 mg/kg) induced a significant body weight gain as early as Day 3 (between 5 and 10%), up until the end of the study (FIGS. 7A-7B).

[7] = SEC-HPLC monomer and HMW content of purified fusion proteins; assay type: physicochemical; details: after Protein A purification

BMP-10 IC50; BMP-reporter HepG2 cells (BMP-10 [1]) [nM]	BMP-9 IC50; BMP-reporter HepG2 cells (BMP-9 [2]) [nM]	fold loss of BMP-9 potency relative to P75; BMP-reporter HepG2 cells (BMP-9 [3]) [fold]	GDF-11 IC50; TGFβ-reporter HEK293 cells (GDF-11) [nM]	Activin A IC50; TGFβ-reporter HEK293 cells [4] [nM]	Activin B IC50; TGFβ-reporter HEK293 cells (activin B) [nM]	GDF-8 IC50; TGFβ-reporter HEK293 cells (GDF-8) [nM]	inhibition potency on BMP-10 relative to P75 (BMP-10 [5])	Molecule	body weight [6]	high molecular weight (HMW) content (SEC-HPLC) [7] [%]	monomer content (SEC-HPLC) [7] [%]
> 100	> 1000	> 100	0.39	0.7	1.8	0.33	–	P1229 (Fc fusion) ETRECIYYNANWELERTNQSGLERCEGEQDKRWHCYASWRNSSGTIELVKKGCWLDDFNCYDRQECVATEENPQVYFCCCEGNFCNERFTHLPEAGGPEVTYEPPPTGGGGSGGGGSGG[human IgG1 Fc and a few adjoining residues not spelt out]	–	–	–
–	–	–	–	–	–	–	unchanged or modestly reduced	P750: hActRIIB L33R, 14 aa linker, IgG1-DL Fc; SEQ ID 175 (protein) ETRECIYYNANWELERTNQSGLERCEGEQDKRRHCYASWRNSSGTIELVKKGCWLDDFNCYDRQECVATEENPQVYFCCCEGNFCNERFTHLPEAGGPEVTYEPPPTGGGGSGGGGSGG[human IgG1 Fc and a few adjoining residues not spelt out]	modest increase in body weight, which only reached statistical significance on Day 7	4	96
> 100	> 1000	> 100	0.46	0.53	2.9	0.4	–	P1373 (Fc fusion) ETRECIYYNANWELERTNQSGLERCEGEQDKRWHCYASWRNSSGTIELVKKGCWLDDFNCYDRQECVATEENPQVYFCCCEGNFCNERFTHLPEAGGPEVTYEPPPTGGGGSGGGGSGGGGSGG[human IgG1 Fc and a few adjoining residues not spelt out]	–	–	–
